Measured values reported in the supplement of paper PMC9174493.
The list shows a part of the results. Single values of this set are uncertain. Values with irradiation are relative to irradiated vehicle.

Experiments:
A549-Dual [1] = experiment: NF-kB reporter (SEAP) activity, viability-corrected, relative to vehicle (fold change vs vehicle); higher = more activation of STING-IRF / NF-kB immune response reporter; conditions: 10 µM
A549-Dual [2] = experiment: ISRE reporter (Lucia luciferase) activity, viability-corrected, relative to vehicle (fold change vs vehicle); higher = more activation of STING-IRF / NF-kB immune response reporter; conditions: 10 µM
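Throughout, for NF-kB reporter (SEAP) activity, viability-corrected, relative to vehicle: viability correction based on the alamar blue assay, with concentrations leaving 10% survival or less dropped.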

Row | Structure (SMILES) | NF-kB reporter (A549-Dual [1]; irradiation: 8 Gy/4 fr) | NF-kB reporter (A549-Dual [1]; irradiation: none) | ISRE reporter (A549-Dual [2]; irradiation: 8 Gy/4 fr) | ISRE reporter (A549-Dual [2]; irradiation: none)
1 | Cc1ccc(S(=O)(=O)[N]([Na])Cl)cc1 [Chloramine-T] | 0.675 | 0.778 | 0.705 | 0.681
2 | CC(C)NCC(O)COc1cccc2ccccc12.Cl (centres undefined) [Propranolol HCl] | 0.849 | 0.947 | 0.768 | 0.627
3 | C[n+]1ccccc1/C=N/O.[Cl-] [Pralidoxime chloride] | 0.781 | 0.755 | 0.782 | 0.63
4 | CN1CC(=O)N2C(Cc3c([nH]c4ccccc34)C2c2ccc3c(c2)OCO3)C1=O (centres undefined) [Tadalafil] | 0.72 | 1.23 | 0.941 | 1.54
5 | COc1cccc(CCc2ccccc2OCC(CN(C)C)OC(=O)CCC(=O)O)c1.Cl (centres undefined) [Sarpogrelate hydrochloride] | 0.521 | 0.745 | 0.522 | 0.624
6 | O=C(O)/C=C/c1ccc(O)cc1 [p-Coumaric Acid] | 0.798 | 0.596 | 0.755 | 0.448
7 | CC12CCC(=O)C=C1C1CC1C1C2CCC2(C)C1C1CC1C21CCC(=O)O1 (centres undefined) [Drospirenone] | 0.701 | 0.807 | 0.66 | 0.73
8 | Oc1cc(O)c2c(c1)OC(c1ccc(O)c(O)c1)C(O)C2 (single isomer, unassigned; (-)) [(-)Epicatechin] | 1.41 | 0.929 | 1.26 | 0.652
9 | CC1=CC(=O)c2ccccc2C1=O [Menadione] | 1.01 | 1.51 | 0.396 | 0.427
10 | Cl.NCCS [Cysteamine HCl] | 0.863 | 0.922 | 0.879 | 0.983
11 | Oc1cccc(O)c1O [Pyrogallol] | 0.722 | 0.516 | 0.606 | 0.622
12 | CN(C)CCOC(=O)COc1ccc(Cl)cc1.Cl [Meclofenoxate (Centrophenoxine) HCl] | 0.442 | 0.577 | 0.488 | 0.478
13 | CCC(=O)OC(OP(=O)(CCCCc1ccccc1)CC(=O)N1CC(C2CCCCC2)CC1C(=O)[O-])C(C)C.[Na+] (centres undefined) [Fosinopril Sodium] | 0.9 | 1.07 | 0.961 | 0.912
14 | CCC(=O)OC1(C(=O)CCl)C(C)CC2C3CCC4=CC(=O)C=CC4(C)C3(F)C(O)CC21C (centres undefined) [Clobetasol propionate] | 0.724 | 1.05 | 0.136 | 0.421
15 | CCC(C)CCCC(=O)NC(CCN)C(=O)NC(C(=O)NC(CCN)C(=O)NC1CCNC(=O)C(C(C)O)NC(=O)C(CCN)NC(=O)C(CCN)NC(=O)C(CC(C)C)NC(=O)C(CC(C)C)NC(=O)C(CCN)NC1=O)C(C)O.CCC(C)CCCC(=O)NC(CCN)C(=O)NC(C(=O)NC(CCN)C(=O)NC1CCNC(=O)C(C(C)O)NC(=O)C(CCN)NC(=O)C(CCN)NC(=O)C(CC(C)C)NC(=O)C(CC(C)C)NC(=O)C(CCN)NC1=O)C(C)O.O=S(=O)(O)O.O=S(=O)(O)O.O=S(=O)(O)O.O=S(=O)(O)O.O=S(=O)(O)O (centres undefined) [Colistin Sulfate] | 1.05 | 1.11 | 0.933 | 1.23
16 | CN1C2CCC1CC(OC(=O)c1c[nH]c3ccccc13)C2 (centres undefined) [Tropisetron] | 0.868 | 1.32 | 0.735 | 0.698
17 | N[C@@H](Cc1c[nH]c2ccc(O)cc12)C(=O)O [L-5-Hydroxytryptophan] | 0.838 | 1.07 | 0.823 | 0.698
18 | CC(C)OC(=O)OCOP(=O)(COC(C)Cn1cnc2c(N)ncnc21)OCOC(=O)OC(C)C.O=C(O)/C=C/C(=O)O (centres undefined) [Tenofovir Disoproxil Fumarate] | 0.633 | 1.01 | 0.584 | 0.877
19 | c1ccc(-c2ccc(C(c3ccccc3)n3ccnc3)cc2)cc1 (centres undefined) [Bifonazole] | 0.469 | 0.804 | 0.33 | 0.473
20 | CCCCCCCC(=O)O [Octanoic acid] | 1.09 | 0.675 | 1.05 | 0.474
21 | Clc1ccc(C(Cn2ccnc2)OCc2c(Cl)cccc2Cl)c(Cl)c1.O=[N+]([O-])O (centres undefined) [Isoconazole nitrate] | 0.463 | 0.493 | 0.438 | 0.397
22 | Clc1ccc2nsnc2c1NC1=NCCN1 [Tizanidine] | 0.831 | 1.24 | 0.653 | 0.621
23 | NCCCNCCCCNCCCN [Spermine] | 0.576 | 0.568 | 0.703 | 0.599
24 | CN(C)C1C(O)=C(C(N)=O)C(=O)C2(O)C(O)=C3C(=O)c4c(O)cccc4C(C)(O)C3C(O)C12.O.O (centres undefined) [Oxytetracycline Dihydrate] | 0.728 | 0.954 | 0.723 | 0.932
25 | CCOC(=O)C1=C(COCCN)NC(C)=C(C(=O)OC)C1c1ccccc1Cl (centres undefined) [Amlodipine] | 0.914 | 0.842 | 1.07 | 1.16
26 | CCCCCCCN(CC)CCCC(O)c1ccc(NS(C)(=O)=O)cc1.CCCCCCCN(CC)CCCC(O)c1ccc(NS(C)(=O)=O)cc1.O=C(O)/C=C/C(=O)O (centres undefined) [Ibutilide Fumarate] | 0.877 | 0.897 | 1.07 | 1.31

Row | Structure (SMILES) | NF-kB reporter (A549-Dual [1]; irradiation: 8 Gy/4 fr) | NF-kB reporter (A549-Dual [1]; irradiation: none) | ISRE reporter (A549-Dual [2]; irradiation: 8 Gy/4 fr) | ISRE reporter (A549-Dual [2]; irradiation: none)
27 | O=C(/C=C/c1ccc(O)c2c1C(C(=O)OC(Cc1ccc(O)c(O)c1)C(=O)O)C(c1ccc(O)c(O)c1)O2)OC(Cc1ccc(O)c(O)c1)C(=O)O (centres undefined) [Salvianolic acid B] | 0.75 | 0.494 | 0.639 | 0.498
28 | CC(=O)C1(O)CCC2C3CC(C)C4=CC(=O)CCC4(C)C3CCC21C (centres undefined) [Medroxyprogesterone] | 0.435 | 1.07 | 0.189 | 0.56
29 | CCN(CC)CCOC(=O)c1ccc(N)cc1.Cl [Procaine HCl] | 0.942 | 1.1 | 0.982 | 1.06
30 | CN(C)CCOc1ccc(/C(=C(/CCCl)c2ccccc2)c2ccccc2)cc1.O=C(O)CC(O)(CC(=O)O)C(=O)O [Toremifene Citrate] | 0.72 | 0.811 | 0.929 | 1.39
31 | COc1c(N2CCNC(C)C2)c(F)cc2c(=O)c(C(=O)O)cn(C3CC3)c12 (centres undefined) [Gatifloxacin] | 0.701 | 0.855 | 0.63 | 0.655
32 | CC(NCCCc1cccc(C(F)(F)F)c1)c1cccc2ccccc12.Cl (centres undefined) [Cinacalcet HCl] | 0.936 | 0.876 | 0.996 | 1.69
33 | CCCCCCCCCCCCN1CCCCCC1=O [Laurocapram] | 0.333 | 0.448 | 0.273 | 0.345
34 | CCCCC1OC(=O)c2ccccc21 (centres undefined) [3-n-Butylphathlide] | 0.824 | 0.625 | 0.714 | 0.628
35 | CCOC(=O)C(CCc1ccccc1)NC(C)C(=O)N1C(C(=O)O)CC2CCCCC21 (centres undefined) [Trandolapril] | 0.785 | 1.25 | 0.821 | 0.808
36 | CCN(CC)C(=O)C1(c2ccccc2)CC1CN.Cl (centres undefined) [Milnacipran HCl] | 0.761 | 0.824 | 1.01 | 0.846
37 | Cl.N=C(N)c1ccccc1 [Benzamidine HCl] | 0.707 | 0.676 | 0.682 | 0.524
38 | Nc1ncnc2c1ncn2C1OC(COP(=O)(O)O)C(O)C1O.O (centres undefined) [Adenosine 5'-monophosphate monohydrate] | 0.604 | 0.534 | 0.644 | 0.566
39 | O=c1[nH]c(=O)n(C2CC(O)C(CO)O2)cc1C(F)(F)F (centres undefined) [Trifluridine] | 0.656 | 1.69 | 0.43 | 2.36
40 | Cl.c1ccc(CC2=NCCN2)cc1 [Tolazoline HCl] | 0.872 | 0.864 | 0.663 | 0.471
41 | CCOC(N)=O [Urethane] | 0.704 | 1.19 | 0.679 | 0.692
42 | COC(=O)c1ccc2c(c1)NC(=O)/C2=C(\Nc1ccc(N(C)C(=O)CN2CCN(C)CC2)cc1)c1ccccc1 [Nintedanib (BIBF 1120)] | 1.26 | 1.86 | 1.05 | 1.89
43 | CC1c2cccc(O)c2C(=O)C2=C(O)C3(O)C(=O)C(C(N)=O)=C(O)C(N(C)C)C3C(O)C21.CC1c2cccc(O)c2C(=O)C2=C(O)C3(O)C(=O)C(C(N)=O)=C(O)C(N(C)C)C3C(O)C21.CCO.Cl.Cl.O (centres undefined) [Doxycycline Hyclate] | 0.6 | 0.929 | 0.385 | 1.04
44 | O.O.O.O.[Li][O]C(=O)CC(O)(CC(=O)[O][Li])C(=O)[O][Li] [Citric acid trilithium salt tetrahydrate] | 0.848 | 0.612 | 0.84 | 0.673
45 | OCC1OC(OC2OC=CC3C(O)C4OC4(CO)C23)C(O)C(O)C1O (centres undefined) [Catalpol] | 1.14 | 0.777 | 0.919 | 0.679
46 | CCN(CC)CCNC(=O)c1cc(Cl)c(N)cc1OC [Metoclopramide] | 0.969 | 1.03 | 0.744 | 0.601
47 | OC[C@@H](O)[C@@H](O)[C@H](O)[C@H](O)CO [D-Mannitol] | 0.736 | 0.977 | 0.97 | 0.929
48 | Cl.N=C(N)NCCC[C@H](N)C(=O)O [L-Arginine HCl (L-Arg)] | 0.877 | 1.35 | 0.757 | 0.876
49 | O=c1ccc2ccccc2o1 [Coumarin] | 0.859 | 1.32 | 0.724 | 0.761
50 | CC(C)(CO)C(O)C(=O)NCCCO (racemic) [DL-Panthenol] | 1.29 | 0.85 | 1.08 | 0.641
51 | O=c1ccn(C2OC(CO)C(O)C2O)c(=O)[nH]1 (centres undefined) [Uridine] | 0.746 | 0.996 | 0.711 | 0.73
